# Data taken from patent US8722849B2, “Polypeptides” (Novo Nordisk A/S, priority 2011, dated 2014).
# At least one read-out could not be matched to a standard name with certainty. Starred links: 1 amine or outer side, 2 acyl side, 3 side chain; linkers in the order of their positions; H or OH if unused. Positions of bridges follow the written chain, without caps; N, C: chain ends. Residues, ends and D or L forms follow the SMILES beside them. Groups on a side chain read outwards from the residue. *: point of attachment. C20 diacid = O=C(O)CCCCCCCCCCCCCCCCCCC(=O)*; C18 diacid = O=C(O)CCCCCCCCCCCCCCCCC(=O)*; γGlu = O=C(O)[C@H](CCC(=O)[*:2])N[*:1]
# Experiment: Assay (III) ThT fibrillation assay for physical stability
# Type: physicochemical
# Conditions: ThT fibrillation assay
# From the text: ASSAY (III)—ThT Fibrillation Assays for the Assessment of Physical Stability of Protein formulations Low physical stability of a polypeptide may lead to amyloid fibril formation, which is observed as well-ordered, thread-like macromolecular structures in the sample eventually resulting in gel formation. This has traditionally been measured by visual inspection of the sample. However, that kind of measurement is very subjective and depending on the observer. Therefore, the application of a small molecule indicator probe is much more advantageous. Thioflavin T (ThT) is such a probe and has a distinct fluorescence signature when binding to fibrils [Naiki et al. (1989) Anal. Biochem. 177, 244-249; LeVine (1999) Methods. Enzymol. […], 274-284]. The time course for fibril formation can be described by a sigmoidal curve with the following expression [Nielsen et al. (2001) Biochemistry 40, 6036-6046]: [formula] Here, F is the ThT fluorescence at the time t. The constant t0 is the time needed to reach 50% of maximum fluorescence. […] Few of those intermediates nucleate to form a template onto which further intermediates may assembly and the fibrillation proceeds. The lag-time corresponds to the interval in which the critical mass of nucleus is built up and the apparent rate constant is the rate with which the fibril itself is formed. Sample Preparation Samples were prepared freshly before each assay. Each sample composition is described in each example. The pH of the sample was adjusted to the desired value using appropriate amounts of concentrated NaOH and HClO4 or HCl. Thioflavin T was added to the samples from a stock solution in H2O to a final concentration of 1 μM. Sample aliquots of 200 μl were placed in a 96 well microtiter plate (Packard OptiPlate™-96, white polystyrene). Usually, four or eight replica of each sample (corresponding to one test condition) were placed in one column of wells. The plate was sealed with Scotch Pad (Qiagen). Incubation and Fluorescence Measurement Incubation at given temperature, shaking and measurement of the ThT fluorescence emission were done in a Fluoroskan Ascent FL fluorescence platereader or Varioskan platereader (Thermo Labsystems). The temperature was adjusted to 37° C. The orbital shaking was adjusted to 960 rpm with an amplitude of 1 mm in all the presented data. Fluorescence measurement was done using excitation through a 444 nm filter and measurement of emission through a 485 nm filter. Each run was initiated by incubating the plate at the assay temperature for 10 min. The plate was measured every 20 minutes for a desired period of time. Between each measurement, the plate was shaken and heated as described. Data Handling The measurement points were saved in Microsoft Excel format for further processing and curve drawing and fitting was performed using GraphPad Prism. The background emission from ThT in the absence of fibrils was negligible. The data points are typically a mean of four or eight samples and shown with standard deviation error bars. Only data obtained in the same experiment (i.e. samples on the same plate) are presented in the same graph ensuring a relative measure of fibrillation between experiments. The data set may be fitted to Eq. (1). However, since full sigmodial curves in this case are not always achieved during the measurement time, the degree of fibrillation is expressed as ThT fluorescence tabulated as the mean of the samples and shown with the standard deviation at various time points. Measurement of Initial and Final Concentrations The polypeptide concentration in each of the tested formulations were measured both before application in the ThT fibrillation assay (“Initial”) and after completion of the ThT fibrillation (“After ThT assay”). Concentrations were determined by reverse HPLC methods using a pramlintide standard as a reference. Before measurement after completion 150 μl was collected from each of the replica and transferred to an Eppendorf tube. […]
SMILES,ThT pH 4.0 recovery [%],ThT pH 4.0 recovery (%)
"CC[C@H](C)[C@H](NC(=O)[C@@H]1CCCN1C(=O)CNC(=O)[C@H](Cc1ccccc1)NC(=O)[C@H](CC(N)=O)NC(=O)[C@H](CC(N)=O)NC(=O)[C@H](CO)NC(=O)[C@H](CO)NC(=O)[C@H](Cc1c[nH]cn1)NC(=O)[C@H](Cc1c[nH]cn1)NC(=O)[C@H](CC(C)C)NC(=O)[C@H](Cc1ccccc1)NC(=O)[C@H](CCC(=O)O)NC(=O)[C@H](C)NC(=O)[C@H](CC(C)C)NC(=O)[C@H](CCCNC(=N)N)NC(=O)[C@H](CCC(N)=O)NC(=O)[C@@H](NC(=O)[C@H](C)NC(=O)[C@@H]1CSSC[C@H](NC(=O)CC[C@H](NC(=O)CCCCCCCCCCCCCCCCCCC(=O)O)C(=O)O)C(=O)N[C@@H](CC(N)=O)C(=O)N[C@@H]([C@@H](C)O)C(=O)N[C@@H](C)C(=O)N[C@@H]([C@@H](C)O)C(=O)N1)[C@@H](C)O)C(=O)N[C@@H](CC(C)C)C(=O)N1CCC[C@H]1C(=O)N1CCC[C@H]1C(=O)N[C@H](C(=O)N[C@@H](CC(N)=O)C(=O)N[C@H](C(=O)NCC(=O)N[C@@H](CO)C(=O)N[C@@H](Cc1c[nH]cn1)C(=O)N[C@H](C(=O)N[C@@H](Cc1ccc(O)cc1)C(N)=O)[C@@H](C)O)C(C)C)[C@@H](C)O [Example 75, N-alpha-[(S)-4-Carboxy-4-(19-carboxynonadecanoylamino)butyryl]-[des1,Glu14,His17,His35]-pramlintide] ({C20 diacid-γGlu}-CNTATCATQRLAEFLHHSSNNFGPILPPTNVGSHTY-NH2; disulfide 1-6 (inferred))",0,0
"CC[C@H](C)[C@H](NC(=O)[C@@H]1CCCN1C(=O)CNC(=O)[C@H](Cc1ccccc1)NC(=O)[C@H](CC(N)=O)NC(=O)[C@H](CC(N)=O)NC(=O)[C@H](CO)NC(=O)[C@H](CO)NC(=O)[C@H](Cc1c[nH]cn1)NC(=O)[C@H](Cc1c[nH]cn1)NC(=O)[C@H](CC(C)C)NC(=O)[C@H](Cc1ccccc1)NC(=O)[C@H](CCC(=O)O)NC(=O)[C@H](C)NC(=O)[C@H](CC(C)C)NC(=O)[C@H](CCCNC(=N)N)NC(=O)[C@H](CCC(N)=O)NC(=O)[C@@H](NC(=O)[C@H](C)NC(=O)[C@@H]1CSSC[C@H](NC(=O)[C@H](CCCCN)NC(=O)[C@H](Cc2c[nH]cn2)NC(=O)[C@H](Cc2c[nH]cn2)NC(=O)CC[C@H](NC(=O)CCCCCCCCCCCCCCCCCCC(=O)O)C(=O)O)C(=O)N[C@@H](CC(N)=O)C(=O)N[C@@H]([C@@H](C)O)C(=O)N[C@@H](C)C(=O)N[C@@H]([C@@H](C)O)C(=O)N1)[C@@H](C)O)C(=O)N[C@@H](CC(C)C)C(=O)N1CCC[C@H]1C(=O)N1CCC[C@H]1C(=O)N[C@H](C(=O)N[C@@H](CC(N)=O)C(=O)N[C@H](C(=O)NCC(=O)N[C@@H](CO)C(=O)N[C@@H](Cc1c[nH]cn1)C(=O)N[C@H](C(=O)N[C@@H](Cc1ccc(O)cc1)C(N)=O)[C@@H](C)O)C(C)C)[C@@H](C)O [Example 67, N-alpha-[(S)-4-Carboxy-4-(19-carboxynonadecanoylamino)butyryl]-His-His-[Glu14,His17,His35]-pramlintide] ({C20 diacid-γGlu}-HHKCNTATCATQRLAEFLHHSSNNFGPILPPTNVGSHTY-NH2; disulfide 4-9 (inferred); C-terminus assumed)",88,88
"CC[C@H](C)[C@H](NC(=O)[C@@H]1CCCN1C(=O)CNC(=O)[C@H](Cc1ccccc1)NC(=O)[C@H](CC(N)=O)NC(=O)[C@H](CC(N)=O)NC(=O)[C@H](CO)NC(=O)[C@H](CO)NC(=O)[C@H](Cc1c[nH]cn1)NC(=O)[C@H](Cc1c[nH]cn1)NC(=O)[C@H](CC(C)C)NC(=O)[C@H](Cc1ccccc1)NC(=O)[C@H](CCC(=O)O)NC(=O)[C@H](C)NC(=O)[C@H](CC(C)C)NC(=O)[C@H](CCCNC(=N)N)NC(=O)[C@H](CCC(N)=O)NC(=O)[C@@H](NC(=O)[C@H](C)NC(=O)[C@@H]1CSSC[C@H](NC(=O)[C@H](Cc2c[nH]cn2)NC(=O)[C@H](Cc2c[nH]cn2)NC(=O)[C@H](Cc2c[nH]cn2)NC(=O)CC[C@H](NC(=O)CCCCCCCCCCCCCCCCCCC(=O)O)C(=O)O)C(=O)N[C@@H](Cc2c[nH]cn2)C(=O)N[C@@H]([C@@H](C)O)C(=O)N[C@@H](C)C(=O)N[C@@H]([C@@H](C)O)C(=O)N1)[C@@H](C)O)C(=O)N[C@@H](CC(C)C)C(=O)N1CCC[C@H]1C(=O)N1CCC[C@H]1C(=O)N[C@H](C(=O)N[C@@H](CC(N)=O)C(=O)N[C@H](C(=O)NCC(=O)N[C@@H](CO)C(=O)N[C@@H](Cc1c[nH]cn1)C(=O)N[C@H](C(=O)N[C@@H](Cc1ccc(O)cc1)C(N)=O)[C@@H](C)O)C(C)C)[C@@H](C)O [Example 32, N-alpha-[(S)-4-Carboxy-4-(19-carboxynonadecanoylamino)butyryl]-His-His-[His1,His3,Glu14,His17,His35]-pramlintide] ({C20 diacid-γGlu}-HHHCHTATCATQRLAEFLHHSSNNFGPILPPTNVGSHTY-NH2; disulfide 4-9 (inferred))",94,94
"CC[C@H](C)[C@H](NC(=O)[C@@H]1CCCN1C(=O)CNC(=O)[C@H](Cc1ccccc1)NC(=O)[C@H](CC(N)=O)NC(=O)[C@H](CC(N)=O)NC(=O)[C@H](CO)NC(=O)[C@H](CO)NC(=O)[C@H](Cc1c[nH]cn1)NC(=O)[C@H](Cc1c[nH]cn1)NC(=O)[C@H](CC(C)C)NC(=O)[C@H](Cc1ccccc1)NC(=O)[C@H](CCC(=O)O)NC(=O)[C@H](C)NC(=O)[C@H](CC(C)C)NC(=O)[C@H](CCCNC(=N)N)NC(=O)[C@H](CCC(N)=O)NC(=O)[C@@H](NC(=O)[C@H](C)NC(=O)[C@@H]1CSSC[C@H](NC(=O)[C@@H](N)CCCCNC(=O)CC[C@H](NC(=O)CCCCCCCCCCCCCCCCC(=O)O)C(=O)O)C(=O)N[C@@H](CC(N)=O)C(=O)N[C@@H]([C@@H](C)O)C(=O)N[C@@H](C)C(=O)N[C@@H]([C@@H](C)O)C(=O)N1)[C@@H](C)O)C(=O)N[C@@H](CC(C)C)C(=O)N1CCC[C@H]1C(=O)N1CCC[C@H]1C(=O)N[C@H](C(=O)N[C@@H](CC(N)=O)C(=O)N[C@H](C(=O)NCC(=O)N[C@@H](CO)C(=O)N[C@@H](Cc1c[nH]cn1)C(=O)N[C@H](C(=O)N[C@@H](Cc1ccc(O)cc1)C(N)=O)[C@@H](C)O)C(C)C)[C@@H](C)O [Example 94, N-epsilon1-[(S)-4-Carboxy-4-(17-carboxyheptadecanoylamino)butyryl]-[Glu14,His17,His35]-pramlintide] (H-K([γGlu-C18 diacid])CNTATCATQRLAEFLHHSSNNFGPILPPTNVGSHTY-NH2; disulfide 2-7 (inferred); N-terminus assumed)",,97
